In US4859584A (priority 1986, dated 1989):

How the values were obtained:
[1] = in glucose, fructose, ribose, sorbose, sucrose, xylose, glycerol, inositol, xylitol, adonitol, glycine, arginine
Experimental: Included within compounds referred to herein as cyanine dyes are compounds of the above structure having one or more substitutions provided such substituted compounds are soluble in a cell labelling media for at least as long as needed for labelling and have a sufficiently high membrane partition coefficient to remain associated with labelled cell membranes. […] Solubility in cell labelling media is determined as shown below by dispursing a cyanine dye in the labelling media and, by standard spectrofluorometric techniques, measuring fluorescence intensity over time. Decreasing fluorescence intensity indicates dye precipitation and adherence to vessel walls. Whether the dyes remain associated with cell membranes is determined, for example, using known flow cytometric procedures to monitor fluorescence intensity of red blood cells reinjected into the donor animal after labelling. Essentially constant fluorescence intensities of the labelled cells after reinjection establishes stability of the dye in cell membranes.

[2] = Experimental: Further, the solubility of cyanine dyes in a medium containing classical salts and osmolarity regulators in which the dyes are soluble was evaluated. […] Thus, reproducible cell labelling with cyanine dyes can be performed in media containing no more than small amounts of classical salts, such as sodium chloride, potassium chloride, calcium chloride, sodium acetate, potassium acetate, sodium sulfate, sodium iodide, choline chloride, or choline iodide, and preferably is performed in a medium in which no classical salts are used to regulate osmolarity.

In the case of `CCCCCCCCCCCCCCN1C(=CC=CC=Cc2sc3ccccc3[n+]2CCCCCCCCCCCCCC)Sc2ccccc21` [DiSC14 (5)], the “Stability of dye solution” value [1] is reported as “stable in the tested solutions for at least twenty minutes”, the “Solubility in iso-osmotic glucose solution on dilution with sodium chloride solution” value ([2]; dilution with approximately 20% iso-osmotic sodium chloride solution) is reported as “reduced significantly” and the “Solubility in iso-osmotic glucose solution on dilution with distilled water” value ([2]; dilution with distilled water) is reported as “not significantly affected”.
